By % Inhibition is commonly meant the drop in the measured response relative to a control, in per cent.

In all, about 150,000 compounds went through this assay and about 540 (0.36%) showed an effect of 50% or more. Some of the results follow.

The test system of the experiment is Plasmodium falciparum. Put plainly: Primary screen in NF54 nanoGlo assay, in single point, at 2uM, 72h; a lower Z score goes with more inhibition. Format: functional, Erythrocyte. The following applies: timepoint 72 hour.
On to `O=C(c1cc(S(=O)(=O)N2CCCC2=O)c(Cl)cc1Cl)N1CCOCC1`, for which the “% Inhibition” value was -10% and the Z score worked out at 1.99.

With `COCCN(C)Cc1ccc(CC2CCN(C(=O)c3ccc(O)nc3)CC2)cc1`, the “% Inhibition” value is recorded as -7% and the Z score worked out at 1.3.

Take `Cc1cn2c(n1)CC[C@H](NCCC(C)(C)C)C2`: the “% Inhibition” value is -15% and the Z score is given as 1.92.

As to `CCOC(C)(C)CS(=O)(=O)NC[C@H](C)c1nccs1`, the “% Inhibition” value is on record as -9% and the Z score turned out to be 0.92.

For `O=C(NC1CCCC1)N1CCC[C@H](C(=O)N2CCCc3n[nH]cc32)C1`, the “% Inhibition” value is -2% and the Z score is listed as 0.22.

Turning to `C[C@]1(c2cccnc2)NC(=O)N(CCOc2cccc(Br)c2)C1=O`, the “% Inhibition” value is recorded as 5% and the Z score is reported as -0.86.

Consider `CC(c1ncc(C(C)(C)C)o1)N(C)CC1CCCOC1` (centres undefined), for which the “% Inhibition” value worked out at 1% and the Z score is on record as -0.08.

As to `O=C1C[C@@H](C(=O)Nc2ccc3c(c2)OCO3)c2c(nc(N3CCOCC3)[nH]c2=O)N1`, the “% Inhibition” value was -13% and the Z score is 1.57.

Consider `CCOC(=O)c1cnc(NCCn2ccnc2C)s1`, for which the “% Inhibition” value is given as -12% and the Z score turned out to be 1.57.

`CCc1c(C(N)=O)cnn1-c1ccc(NC(=O)c2cc(F)cc(F)c2)cc1`: the “% Inhibition” value is on record as -23% and the Z score amounted to 4.5.

For `CN(CC1(c2ccccc2)CC1)C(=O)NC1CCCC1CCO` (centres undefined), the “% Inhibition” value is -4% and the Z score was found to be 0.6.

On to `CCOC(=O)C(Cc1ccccn1)NC(=O)C1CCCC(F)(F)C1` (centres undefined), for which the “% Inhibition” value was -11% and the Z score amounted to 2.19.

For `CCCOC[C@H]1CCN(C(=O)CN2CCOCC2)C1`, the “% Inhibition” value is reported as -5% and the Z score was 0.72.

For `O=C(c1nnc(N2CCC(N3CCCCC3)CC2)n1CC1CC1)N1CCCC1`, the “% Inhibition” value was -12% and the Z score is listed as 1.27.

`O=C1c2ccccc2C(=O)N1CCCCN(C(=O)c1ccc(S(=O)(=O)N2CCCC2)cc1)c1ccc(F)cc1F`: the “% Inhibition” value is given as -5% and the Z score was determined as 0.98.

On to `Cc1cnc(C2CCN(C(=O)c3cscn3)CC2)n1[C@H](C)CO`, for which the “% Inhibition” value is reported as -3% and the Z score is listed as 0.53.

With `Cc1cnc(C)c(NCC2CC(O)CN2Cc2ccccc2)n1` (centres undefined), the “% Inhibition” value is listed as -9% and the Z score was 1.23.

With `CCC(CC)C(=O)Nc1ccc(Oc2cc(C(=O)O)nn2C)c(S(=O)(=O)NCC(C)C)c1`, the “% Inhibition” value is given as -19% and the Z score was determined as 1.71.

For the molecule `COCC(=O)N(Cc1cccc(C)c1)c1ccc(CC(=O)NCCN(C)C)cc1`, the “% Inhibition” value is listed as -8% and the Z score was 1.07.

On to `COc1nc2c(c(C)nn2-c2cccc(F)c2)c(C)c1CCC(=O)NCc1ccc(F)cc1`, for which the “% Inhibition” value was -9% and the Z score turned out to be 1.26.

With `O=C(NCCc1cnc(O)nc1)[C@@H]1Cc2cc(F)ccc2O1`, the “% Inhibition” value amounted to 0% and the Z score is 0.06.

As to `CC(C)c1nc(CN2CCc3nocc3C2)co1`, the “% Inhibition” value is -12% and the Z score was found to be 1.19.

Take `CC[C@H](C)[C@@H]1NC(=O)N(Cc2coc(-c3ccccc3)n2)C1=O`: the “% Inhibition” value is on record as -1% and the Z score is reported as 0.14.

With `O=C1CCCN1CCCC(=O)N1CCO[C@@H](Cc2cccc3ccccc23)C1`, the “% Inhibition” value amounted to 1% and the Z score is recorded as -0.23.

Turning to `COc1ccccc1OCc1ccc(C(=O)N2N=CC[C@]2(O)C(F)(F)F)cc1`, the “% Inhibition” value is -38% and the Z score was determined as 4.45.

Turning to `COc1cccc(Oc2nc(N3CCCCC3)nc3c2CN(Cc2cc(OC)c(OC)c(OC)c2)CC3)c1`, the “% Inhibition” value is reported as -9% and the Z score was determined as 1.3.

With `CS(=O)(=O)N1CCc2nc(NC(=O)c3ccc(=O)[nH]n3)sc2C1`, the “% Inhibition” value was -16% and the Z score came to 2.27.

Take `Cc1ccc(C)c(S(=O)(=O)NC[C@H](O)c2ccc3c(c2)CCO3)c1`: the “% Inhibition” value is given as -17% and the Z score is on record as 2.14.

For `O=C1NCCCCCCN(Cc2ccncc2)[C@@H]2CN(S(=O)(=O)c3cccc4nsnc34)CC[C@@H]12`, the “% Inhibition” value is -5% and the Z score turned out to be 0.75.

On to `CN(Cc1cscn1)C(=O)CCN1CCN(c2ccccc2)CC1`, for which the “% Inhibition” value is -7% and the Z score is reported as 1.02.

As to `COc1cccc(NC(=O)c2ccc3c(c2)nnn3C2CCCC2)c1`, the “% Inhibition” value is on record as -14% and the Z score is 1.85.

For `COc1ncnc(OC)c1S(=O)(=O)N1CCOCC1`, the “% Inhibition” value is on record as -7% and the Z score was found to be 0.81.

Consider `COCCc1noc(CNC(=O)c2cc(Cl)cn2C)n1`, for which the “% Inhibition” value is reported as -5% and the Z score is 1.05.

For `O=C(NC[C@H]1CCCN(c2ccncc2F)C1)C1CCOCC1`, the “% Inhibition” value is recorded as 0% and the Z score was -0.07.

Turning to `N#Cc1cnc(-c2ccc(F)cc2)n(CC(=O)N2CCN(c3ccccc3)CC2)c1=O`, the “% Inhibition” value was -10% and the Z score turned out to be 1.32.

Consider `CN(C)c1noc(CNC(=O)NCC(F)(F)F)n1`, for which the “% Inhibition” value is -5% and the Z score came out at 0.91.

For the molecule `CC1(C#N)CCN(Cc2cc(C(C)(C)C)[nH]n2)CC1`, the “% Inhibition” value worked out at 4% and the Z score is recorded as -0.56.

For the molecule `CC1C[S+]([O-])CCN1C(=O)COc1ccc(Cl)cc1Cl` (centres undefined), the “% Inhibition” value came out at 5% and the Z score was -0.58.

Consider `COc1ccc(CN2C(=O)N[C@@H](CCC(=O)Nc3nccs3)C2=O)cc1OC`, for which the “% Inhibition” value was -3% and the Z score is listed as 0.4.

On to `CCN(CC)CCOc1ccc(CN2C(=O)CN(C3CC3)C2=O)cc1`, for which the “% Inhibition” value is reported as -4% and the Z score worked out at 0.88.

As for `COc1cccnc1N(C)C(=O)C1CC(C)OC(C)C1` (centres undefined), the “% Inhibition” value was determined as 14% and the Z score is on record as -1.57.

As for `COc1cccc(-c2ccc(N3CCCN(C(=O)CN(Cc4ccc(F)cc4)C(=O)c4ccc(Cl)cc4)CC3)nn2)c1`, the “% Inhibition” value was -12% and the Z score is given as 1.18.

Values taken from ChEMBL document CHEMBL4888484, “Replenishing the malaria drug discovery pipeline: Screening and hit evaluation of the MMV Hit Generation Library 1 (HGL1) against asexual blood stage Plasmodium falciparum ,using a nano luciferase reporter read-out” (2022).
